# PubChem BioAssay AID686978 (National Center for Advancing Translational Sciences (NCATS), 2013)
# Hit rate of the full screen: of about 420,000 compounds, about 64,000 (15%) were called active. Inconclusive results, whose numbers are uncertain, are shown with a selection of clear calls. The call rests on the fitted dose curve; in most records, active means well fitted inhibition curve with a large enough effect; inconclusive means small, poorly fitted or top-dose-only effect; inactive means flat fitted curve, though single readings scatter. No potency is given beside an inconclusive call; the fits are too rough.
# Test: qHTS for Inhibitors of human tyrosyl-DNA phosphodiesterase 1 (TDP1): qHTS in cells in absence of CPT; further: nearly all actives have a fitted effect of over 55% in size
# Conditions: DT40 Tdp1-/- hTDP1 cells, no CPT, ATP luminescence, 48 h; series mostly up to 46.2 µM
# In short: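 Growth of hTDP1-complemented DT40 Tdp1-knockout cells is measured by ATP luminescence after at least 48 hr compound exposure at 37 °C, with DMSO substituting for the 20 nM CPT used in the parallel screen.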
# Potency means the concentration at half of the fitted maximal effect; tags describe the fitted curve by direction and shape.
row,SMILES,Potency
1,Cc1ccc(CS(=O)(=O)Cc2ccc(C(=O)NC3CCCC3)o2)cc1,"inconclusive [inhibitor, full curve, poor fit]"
2,O=C(COc1ccc(-c2ccccc2)cc1)NN=C1CCCC1,"inconclusive [inhibitor, single point]"
3,COc1ccc(-c2cc3ccccc3n2CC(O)CN2CCC(C)CC2)cc1 (stereo not drawn),active: 23.1 µM
4,CC1CCCCN1S(=O)(=O)c1ccc2c(c1)oc(=O)n2CC(=O)Nc1ccc(Cl)cc1 (stereo not drawn),"inconclusive [inhibitor, single point]"
5,COc1cccc(N2CCN(C(=O)c3cccc(S(=O)(=O)N4CCCC4)c3)CC2)c1,"inconclusive [inhibitor, single point]"
6,COc1cc(C2CC(=O)Nc3c2c(=O)nc2c(C)cccn32)cc(OC)c1OC (stereo not drawn),inactive
7,Cc1ccc(Cl)cc1NC(=O)C1C2CCC(O2)C1C(=O)O (stereo not drawn),inactive
8,O=C(NCCOC(=O)c1c(F)cccc1Cl)c1c(F)cccc1Cl,"inconclusive [inhibitor, single point]"
9,CNC(=O)c1c(NC(=O)c2cccc(C)c2)sc2c1CCC2,"inconclusive [inhibitor, single point]"
10,O=C1NC(Cc2c[nH]c3ccccc23)C(=O)N1Cc1cccc2ccccc12 (stereo not drawn),"inconclusive [inhibitor, single point]"
11,O=C(NCCCc1ccccc1)c1ccc(CS(=O)Cc2ccc(Cl)cc2)o1 (stereo not drawn),"inconclusive [inhibitor, single point]"
12,Cc1ccc(NC(=O)c2ncn(CCCN3CCN(Cc4cccc5ccccc45)CC3)n2)cc1C,active: 13 µM
13,COc1ccc(Cl)cc1NC(=S)Nc1cccc(C)c1,"inconclusive [inhibitor, single point]"
14,C#CCOCCOCCOCCNc1nc(N2CCN(C(=O)[C@H]([C@@H](C)CC)n3cc([C@@H](N)CC(C)C)nn3)CC2)nc(N2CCN(C(=O)[C@H](Cc3cc4ccccc4[nH]3)n3cc([C@@H](N)Cc4ccc(O)cc4)nn3)CC2)n1,"inconclusive [inhibitor, single point]"
15,COc1ccc(-c2nc3cnc(N4CCOCC4)nc3n(Cc3cccc(OC)c3)c2=O)cc1,inactive
16,COc1cccc(-c2cc3nc(C)cc(N4CCN(C(=O)c5ccoc5)CC4)n3n2)c1,active: 20.6 µM
17,COCCCN(Cc1ccco1)C(=O)Cn1ncc2c([nH]c3ccccc32)c1=O,"inconclusive [inhibitor, single point]"
18,CC(=O)Nc1ccc(NC(=O)Cc2ccc(S(=O)(=O)N3CCCCC3)cc2)cc1,inactive
19,COc1ccc(S(=O)(=O)N2Cc3ccccc3CC2C(=O)Nc2ccc(O)cc2)cc1OC (stereo not drawn),"inconclusive [inhibitor, single point]"
20,O=c1nc(-c2ccccc2Cl)c2cc(F)ccc2[nH]1,"inconclusive [inhibitor, partial curve]"
21,CN(CCO)C(=O)c1cn(C2CCCN(Cc3ccc4ccccc4c3)C2)nn1 (stereo not drawn),inactive
22,CCOc1cc(CNCc2ccccc2)ccc1OCc1ccc(Cl)cc1,active: 5.8 µM
23,N#Cc1cccc(-n2c(-c3ccccc3)nnc2-c2ccccc2)c1C#N,"inconclusive [inhibitor, single point]"

row,SMILES,Potency
1,COc1ccccc1NC(=S)N1CCN(C(c2ccccc2)c2ccccc2)CC1,"inconclusive [inhibitor, single point]"
2,O=C(CC1NC(=O)NC1=O)Nc1cccc2ccccc12 (stereo not drawn),inactive
3,Cc1cc(NCCc2ccccc2F)n2ncnc2n1,"inconclusive [inhibitor, single point]"
4,O=C(CN1C(=O)COc2ccc(S(=O)(=O)N3CCOCC3)cc21)Nc1cccc(Cl)c1,"inconclusive [inhibitor, single point]"
5,CCOc1ccc([C@@H]2CC=C(C(=O)O)[C@H](c3ccc(Cl)cc3)N2S(=O)(=O)c2ccc(C)cc2)cc1,inactive
6,CCN(CCCNC(=O)c1cc2cc3ccc(OC)cc3nc2s1)c1ccccc1,active: 20.6 µM
7,Oc1ccc(C=NNc2nc3ccccc3s2)c(O)c1,active: 4.11 µM
8,Cc1ccc(NC(=O)C(Cc2ccccc2)NS(=O)(=O)c2cccc3nsnc23)c(C)c1 (stereo not drawn),"inconclusive [inhibitor, single point]"
9,Cc1ccc(C)c(C(=O)Nc2cc(C)nn2-c2nc(C)cc(C)n2)c1,active: 5.17 µM
10,CC(C)CN(C(=O)CN1CCC(C)CC1)c1c(N)n(CC(C)C)c(=O)[nH]c1=O,inactive
11,O=C1CCN(Cc2ccccc2)S(=O)(=O)c2ccc(C(F)(F)F)cc21,"inconclusive [inhibitor, single point]"
12,Cc1cc(C=C2C(=O)CCCC2=O)c(C)n1-c1ccccc1,"inconclusive [inhibitor, single point]"
13,CCc1ccc(NC(=O)CN(CC(=O)Nc2ccc(CC)cc2)CC(C)O)cc1 (stereo not drawn),"inconclusive [inhibitor, single point]"
14,C=C(C)COc1ccc(-c2n[nH]c(C)c2-c2ccc(OC)c(OC)c2)c(O)c1,active: 2.59 µM
15,O=S(=O)(c1ccc(F)cc1)N1CCCNCC1,inactive
16,Cc1ccc(S(=O)(=O)N2[C@@H](c3ccc(Cl)cc3)C(C(=O)O)=CC[C@H]2c2cccs2)cc1,inactive
17,COC(=O)[C@@]1(Cc2ccc(OC)cc2)[C@H]2c3cc(C(=O)N(C)C)n(CCSCCO)c3C[C@H]2CN1C(=O)c1ccccc1,inactive
18,Cc1ccc(NC(=S)N(CCCN2CCCC2)Cc2cccn2Cc2ccc(Cl)cc2)cc1Cl,active: 6.51 µM
19,Cc1ccc(NC(=O)c2cc(S(=O)(=O)NCCC3=CCCCC3)ccc2F)cc1,"inconclusive [inhibitor, single point]"
20,Cc1c(Br)cccc1NC(=O)C1(C)CCN1Cc1ccccc1OC(F)F (stereo not drawn),"inconclusive [inhibitor, single point]"
21,O=C(/C=C/c1cccc(F)c1)OCC(=O)N1CCCC1,"inconclusive [inhibitor, partial curve]"
22,NS(=O)(=O)c1ccc(CCNC(=O)CN2CCN(Cc3cccc4ccccc34)CC2)cc1,"inconclusive [inhibitor, single point]"
23,O=C(CCn1c(=O)c2sccc2n(Cc2cc(=O)n3ccccc3n2)c1=O)NCc1ccco1,inactive

row,SMILES,Potency
1,COc1ccc(NC(=O)CN(C)C(=O)c2ccc(N3CCCCCC3)c([N+](=O)[O-])c2)cc1,"inconclusive [inhibitor, single point]"
2,COc1ccccc1NC(=O)CN(Cc1ccco1)C(=O)c1cc(Cl)c(OC)c(OC)c1,"inconclusive [inhibitor, single point]"
3,Cc1ccccc1-c1cc(C(=O)N/N=C/c2cccnc2)c2ccccc2n1,"inconclusive [inhibitor, full curve]"
4,COc1cc(CN2CCOc3ccc(CN4CCC(O)(c5cccnc5)CC4)cc3C2)ccc1F,"inconclusive [inhibitor, single point]"
5,COC(=O)c1cc(S(=O)(=O)N2c3ccccc3CC2C)cn1C (stereo not drawn),"inconclusive [inhibitor, single point]"
6,Cc1ccc(NCC(=O)N/N=C/c2cccc(Oc3ccccc3)c2)cc1,"inconclusive [inhibitor, single point]"
7,COC(=O)C(CSCc1ccccc1)NC(=O)CCNC(=O)OCc1ccccc1 (stereo not drawn),"inconclusive [inhibitor, single point]"
8,COc1ccc(CCC(=O)Nc2cccc(S(=O)(=O)N(C)C)c2)cc1OC,inactive
9,CC(C)C(=O)Nc1ccc2nc(SCCOc3ccccc3)sc2c1,inactive
10,CCOC(=O)c1c(C)[nH]c(CCC(=O)Nc2ccccc2C(=O)OC)c1C,active: 23.1 µM
11,CC(=O)O[C@@H]1[C@@H](O)[C@@H](O)[C@H](Oc2c(-c3ccc(O)cc3)oc3c(CC=C(C)C)c(O)cc(O)c3c2=O)O[C@H]1C,"inconclusive [inhibitor, single point]"
12,CCOc1ccc(CN2CCCC(CO)(Cc3ccccc3F)C2)cc1 (stereo not drawn),"inconclusive [inhibitor, single point]"
13,CCn1c(=O)n(CC)c2cc(N3CCCCC3)c(NC(=O)Nc3cc(Cl)ccc3OC)cc21,active: 18.4 µM
14,Cc1cc(C)c(S(=O)(=O)NC2CC2)c(C)c1,inactive
15,CCOC(=O)C1=C(O)/C(=C/c2ccc(OCC(=O)O)c(OCC)c2)SC1=Nc1ccccc1,"inconclusive [inhibitor, single point]"
16,CCCCOCc1cc(CN2CCN(c3cccc(Cl)c3)CC2)c(O)c2ncccc12,active: 3.26 µM
17,O=C(C1=NNCC1c1ccc(Cl)cc1)C1CO1 (stereo not drawn),"inconclusive [inhibitor, partial curve]"
18,COc1cc(C(=O)NCC2CCCN2S(=O)(=O)c2cccs2)cc(OC)c1OC (stereo not drawn),"inconclusive [inhibitor, single point]"
19,Cc1ccc(CNC(=O)c2ccccc2NC(=O)CN2CCN(C)CC2)cc1,inactive
20,CCOC(=O)N1CCN(C(=O)CCS(=O)(=O)c2ccc3c(c2)CC(C)N3C(=O)CC)CC1 (stereo not drawn),"inconclusive [inhibitor, full curve, poor fit]"
21,O=C(Nc1cc(-c2ccccc2)nn1-c1c(Cl)cccc1Cl)c1ccc(F)cc1,active: 18.4 µM
22,COc1cccc(-c2nc(CS(=O)CC(=O)NCCc3ccccc3)c(C)o2)c1 (stereo not drawn),"inconclusive [inhibitor, single point]"
